Test results from PMC4336329 (PLoS ONE, 2015).
Screen size: about 310,000 compounds; about 14,000 (4.5%) showed an effect of 50% or more. Effects have a minus sign here. The list shows a part of the results.

biological target: human ether-à-go-go-related gene (hERG) potassium channel (human, UniProt Q12809); test: primary screen, population patch clamp on CHO cells stably expressing hERG
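Also: peak tail current of the secondary pulse compared with the same well before compound.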

human ether-à-go-go-related gene (hERG) potassium channel, sequence (Q12809 whole entry, looked up): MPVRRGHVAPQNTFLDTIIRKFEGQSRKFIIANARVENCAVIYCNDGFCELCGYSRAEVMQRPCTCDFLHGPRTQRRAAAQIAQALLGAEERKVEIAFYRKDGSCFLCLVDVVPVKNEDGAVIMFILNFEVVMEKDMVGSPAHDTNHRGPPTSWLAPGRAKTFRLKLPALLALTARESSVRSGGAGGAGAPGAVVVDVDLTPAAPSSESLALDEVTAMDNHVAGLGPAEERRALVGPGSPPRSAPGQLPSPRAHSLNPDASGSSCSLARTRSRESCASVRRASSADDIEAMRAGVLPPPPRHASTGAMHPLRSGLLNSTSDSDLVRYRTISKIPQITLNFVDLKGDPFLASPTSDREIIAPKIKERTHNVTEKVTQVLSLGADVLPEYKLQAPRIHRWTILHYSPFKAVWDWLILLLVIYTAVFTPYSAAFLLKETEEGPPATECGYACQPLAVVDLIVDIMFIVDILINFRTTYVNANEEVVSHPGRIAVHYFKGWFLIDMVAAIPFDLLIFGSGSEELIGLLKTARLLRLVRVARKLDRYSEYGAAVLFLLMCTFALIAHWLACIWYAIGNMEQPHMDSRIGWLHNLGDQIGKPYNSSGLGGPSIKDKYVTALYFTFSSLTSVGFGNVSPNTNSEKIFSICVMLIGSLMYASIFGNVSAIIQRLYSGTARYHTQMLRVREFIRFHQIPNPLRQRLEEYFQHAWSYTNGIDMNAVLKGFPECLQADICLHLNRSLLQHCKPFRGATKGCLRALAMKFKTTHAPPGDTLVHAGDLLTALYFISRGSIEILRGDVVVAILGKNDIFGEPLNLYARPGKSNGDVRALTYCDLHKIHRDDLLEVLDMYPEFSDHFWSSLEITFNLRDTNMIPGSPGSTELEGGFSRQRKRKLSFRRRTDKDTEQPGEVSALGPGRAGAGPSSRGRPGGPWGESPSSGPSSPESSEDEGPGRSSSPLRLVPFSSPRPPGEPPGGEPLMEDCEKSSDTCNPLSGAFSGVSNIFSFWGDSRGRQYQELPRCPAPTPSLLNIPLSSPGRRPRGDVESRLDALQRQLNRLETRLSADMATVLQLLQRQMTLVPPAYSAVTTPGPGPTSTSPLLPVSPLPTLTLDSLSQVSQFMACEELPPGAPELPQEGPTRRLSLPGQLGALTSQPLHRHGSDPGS

| SMILES | hERG current change (%, negative = inhibition) at 10uM [%] |
| --- | --- |
| O=C(COC(=O)/C=C/c1ccc(Cl)cc1)Nc1ccc2c(c1)OCCO2 | 18.1 |
| C=CCNC(=S)N/N=C(\C)c1cc(OC)c(OC)c(OC)c1 | 9.63 |
| COc1ccccc1NC(=O)C(C)OC(=O)CCCOc1ccccc1 (centres unmarked) | -5.61 |
| Cc1ccccc1C(=O)OC1OC(=O)C(Cl)=C1N1CCOCC1 (centres unmarked) | -20.1 |
| Cc1nnc(SCCn2c(N3CCN(C)CC3)nc3c2c(=O)n(C)c(=O)n3C)s1 | 0.487 |
| COc1cccc(/C=C/C2=CC(C)(C)NC(=S)N2)c1 | 16 |
| O=S(=O)(c1ccc(N2CCN(CCO)CC2)nc1)N1CCCCC1 | 11 |
| CC(O)[C@H]1CN=C(N)N1CCc1cc(C(F)(F)F)cc(C(F)(F)F)c1 (some centres unmarked) | 13.1 |
| O=C(CC1SC(=Nc2ccccc2)N(Cc2ccccn2)C1=O)Nc1ccc(Br)cc1 (centres unmarked) | 16.5 |
| CCC(=O)c1cc(F)c(N2CCN(C(=O)c3ccco3)CC2)cc1C | -14.4 |
| Cc1ccccc1NC(=O)Cc1ccccc1 | 17.9 |
| Cc1ccc(NC(=S)N2CCN(S(=O)(=O)c3ccccc3)CC2)cc1C | 11.6 |
| O=C(COC(=O)c1cccs1)c1ccc2c(c1)OCCO2 | -6.42 |
| O=c1c(C/C=C/c2ccccc2)c(O)nc2n1CCCS2 | -20.8 |
| CC(C)Cc1nnc(NS(=O)(=O)Cc2ccccc2)s1 | 17.4 |
| Cc1nnc(NC(=O)Cc2cccs2)s1 | -15.2 |
| Nc1ccc(NC(=O)c2cccs2)c(Cl)c1 | 7.42 |
| Cc1cc(NC(=O)CN2CCCCC2)n(-c2ccccc2)n1 | 6.65 |
| CCOC(=O)c1cc(NC(=O)CSc2nnc(CN3CCOCC3)n2C)ccc1Cl | -34.5 |
| CCN(CC)C(=O)c1cc2c(=O)n3ccccc3nc2s1 | -20.2 |
| Cc1ccc(-c2csc(NCCc3nc4cc(Cl)c(Cl)cc4n3CCCO)n2)cc1 | -1.21 |
| CCN(CC)c1cc(NCCO)c([N+](=O)[O-])c2nonc12 | -25.1 |
| CC(=O)Nc1cccc(C(=O)N/N=C/c2cccnc2)c1 | 2.32 |

| SMILES | hERG current change (%, negative = inhibition) at 10uM [%] |
| --- | --- |
| O=C(O)/C=C\C(=O)Nc1ccccc1C#Cc1ccc(Br)cc1 | 14.3 |
| CCO[C@H]1OC(C(=O)O)=C[C@@H](c2coc3ccccc3c2=O)[C@@H]1CCCO | 7.63 |
| C=CCN1C(=O)C(Cc2ccc(OC)cc2)SC1=Nc1ccc(C(=O)O)cc1 (centres unmarked) | 5.21 |
| O=C(NC(Cc1ccccc1)C(=O)N1CCc2ccccc2C1)c1ccccc1 (centres unmarked) | -9.48 |
| Cn1c(CCc2ccccc2)nnc1SCC(=O)N1CCOCC1 | -2.56 |
| COc1ccc(N2C(=O)C(CC(=O)O)S/C2=C\C(C)=O)cc1 (centres unmarked) | 13 |
| O=C(COc1ccc(/C=N/NC(=O)c2ccccc2)cc1)Nc1ccc([N+](=O)[O-])cc1 | 15.2 |
| Cc1ccc(C(=O)N/C(=C/c2cccs2)C(=O)NCc2ccco2)cc1 | -15.8 |
| O=C(COC(=O)/C=C/c1cn(-c2ccccc2)nc1-c1ccc2c(c1)OCCO2)NC1CCS(=O)(=O)C1 (centres unmarked) | 1.05 |
| CCOC(=O)c1ccc(NC(=O)N2CCN(C(=O)C3CCCO3)CC2)cc1 (centres unmarked) | 2.68 |
| COCCCn1c2nc3ccccc3nc2c2c(=O)n(Cc3ccccc3Cl)cnc21 | 11.7 |
| CN(CC(=O)Nc1ccc(N2CCOCC2)cc1)C(=O)Cc1ccccc1 | 6.7 |
| COc1ccc(S(=O)(=O)N2C3CCC2CC(NC(=O)C2CC2)C3)cc1 (centres unmarked) | 14 |
| O=C(CC(=O)Nc1ccc(Cl)c(Cl)c1)N/N=C/c1ccc(O)cc1 | -10.3 |
| CCOc1ccccc1/C=C/c1onc(C)c1S(=O)(=O)N1CCC(C(=O)N2CCCCCC2)CC1 | -10.8 |
| Cl.O=C(c1cccc(S(=O)(=O)N2CCCC2)c1)N1CCN(Cc2ccccc2)CC1 | -14.2 |
| Cc1cccc(C(=O)N=c2sccn2C)c1[N+](=O)[O-] | 3.12 |
| O=C(O)C1CCCN1S(=O)(=O)c1ccc(Cl)c(Cl)c1 (centres unmarked) | 0.134 |
| CC(C)Cn1c(-c2cccs2)nc2nc3ccccc3nc21 | 2.09 |
| Cn1cc(/C=N/n2cnc3scc(-c4ccc(Cl)cc4)c3c2=O)c2ccccc21 | 4.06 |
| NS(=O)(=O)c1ccc(CCNC(=O)c2cccc(S(=O)(=O)N3CCCC3)c2)cc1 | -5.57 |
| Cc1cc(C(=O)N/N=C/c2sccc2C)no1 | 17.2 |
| COc1cc(/C=N/NC(=O)c2cc(-c3cccs3)nc3ccccc23)ccc1O | -10.1 |

| SMILES | hERG current change (%, negative = inhibition) at 10uM [%] |
| --- | --- |
| O=C(c1ccoc1)N1CCC2(CC1)Oc1ccc(Cl)cc1C(=O)C21CC(c2cccnc2)=NO1 (centres unmarked) | -21.5 |
| CCN(CC)C(=O)CN1CCC(n2c(C)nc3cc(C(F)(F)F)ccc32)CC1 | -32.8 |
| O=C1/C(=C/c2cccnc2)CCC/C1=C\c1cccnc1 | -16.5 |
| COc1ccc(C(CC(=O)NCc2ccccc2)C(C)C)cc1 (centres unmarked) | -5.99 |
| Cc1ccc(C(=O)CCC(=O)NN2C(=O)NC3(CCCCC3)C2=O)cc1 | 10 |
| O=C(N/C(=C\c1ccc([N+](=O)[O-])cc1)C(=O)N1CCCCC1)c1ccccc1Br | -59.4 |
| Cc1cc(=O)oc2cc(OCC(=O)OCC(=O)N3CCC(C)CC3)ccc12 | 12.9 |
| CN(C)S(=O)(=O)c1ccc(Nc2ccc(-c3ccc4c(c3)OCCO4)nn2)cc1 | -8.96 |
| Cc1ccc2c(c1)N(CC(=O)N1CCCC(C)C1)C(=O)CO2 (centres unmarked) | 3.21 |
| COc1coc(/C=C/C(=O)O)cc1=O | 11 |
| CCOC(=O)N1CCN(S(=O)(=O)c2ccc(C(=O)Nc3sc4c(c3C#N)CCC4)cc2)CC1 | -2.41 |
| O=C(NCc1n[nH]c(=O)c2ccccc12)C1CC(=O)N(c2ccccc2)C1 (centres unmarked) | -1.81 |
| O=C(c1cccc(Br)c1)c1coc2ccc(O)cc12 | 14.7 |
| Cc1ccc(S(=O)(=O)N2CCOCC2)cc1NC(=O)COC(=O)COc1cccc2c1OC(C)(C)C2 | -6.72 |
| CC1CCN(CCCn2c(=S)[nH]c3ccccc3c2=O)CC1 | -56.9 |
| O=C(N/N=C/c1cccc([N+](=O)[O-])c1)c1ccc(COc2ccccc2-c2ccccc2)cc1 | 0.73 |
| Cc1[nH]n(-c2ccccc2)c(=O)c1/C=N/n1c(C)nc2ccccc2c1=O | 11.8 |
| O=C(CCN1C(=O)COc2ccccc21)N1CCCCC1 | -6.49 |
| COc1cccc(CC(=O)OCC(=O)c2cc(OC)ccc2OC)c1 | -28.7 |
| O=C(C1=C[C@@H](c2ccc(C(F)(F)F)cc2)C[C@@H](OCCCCO)O1)N1CCCCCCC1 | -51.3 |
| CCC(C)(C)NC(=O)CN(Cc1ccc2c(c1)OCO2)C(=O)CCC(=O)Nc1ccccn1 | -22.3 |
| O=[N+]([O-])c1cc([N+](=O)[O-])c(Oc2cc(F)ccc2F)cc1NN1CCCCC1 | 24.4 |
| CCc1ccccc1NC(=O)CC1SCCNC1=O (centres unmarked) | 26.3 |

| SMILES | hERG current change (%, negative = inhibition) at 10uM [%] |
| --- | --- |
| CCCNC(=O)c1ccc2nc(-c3ccccc3)c(-c3ccccc3)nc2c1 | 9.38 |
| CN(C)/C=N/C(=S)Nc1ccc(Br)cc1F | 2.38 |
| NS(=O)(=O)c1ccc(CNS(=O)(=O)c2ccc3ccccc3c2)cc1 | 1.74 |
| COc1ccc(Cc2nc(-c3cccs3)no2)cc1 | -4.27 |
| NC(=O)CCS(=O)(=O)c1ccccc1 | 7.17 |
| CCNC(=O)N1CCOCC1 | 8.3 |
| CCC(=O)c1ccc(SC(=O)N(C)C)cc1O | 12.1 |
| COc1ccccc1Oc1ccc(S(=O)(=O)N2CCOCC2)cc1S(=O)(=O)N1CCOCC1 | -20.1 |
| CCOC(=O)C1CCN(C(=O)/C=C/c2ccccc2OC)CC1 | -24 |
| O=C(NNc1nc2ccccc2nc1C(F)(F)F)c1ccccc1 | 11.9 |
| O=C1CCNc2c(Cl)cc(Cl)cc21 | -2.74 |
| O=C(CCC(=O)c1cccs1)Nc1nnc(C2CC2)s1 | 5.89 |
| COc1ccc(CC(NC(C)=O)C(=O)N2CCN(C(=O)Nc3cccc(Cl)c3)CC2)cc1OC (centres unmarked) | 4.89 |
| CCC1CCCCN1CCCNC(=O)c1ccc(CS(=O)(=O)c2ccccc2C)o1 (centres unmarked) | -26.5 |
| O=C1C2CC=CCC2C(=O)N1CC1CCCO1 (centres unmarked) | -3.68 |
| Fc1ccc(Br)cc1/C=N/n1cnnc1 | 11 |
| O=S(=O)(Nn1c(O)c(C=C2N=c3ccccc3=N2)sc1=S)c1ccccc1 | 4.52 |
| COc1cccc(OC)c1C(=O)Nc1sc2c(c1C#N)CCC2 | 4.8 |
| O=C(CNC(=O)c1ccco1)NCC(=O)OC(C(=O)c1ccccc1)c1ccc(Cl)cc1 (centres unmarked) | -12.9 |
| CN1CCN(S(=O)(=O)c2cccc(C(=O)N3CCN(c4ccccc4F)CC3)c2)CC1 | -0.195 |
